Like-named read-outs stand apart in the source and are kept apart here.
Assays:
Experiment in all cases: cell-based or functional assay
[1] = biological target: T1, six-transmembrane epithelial antigen of the prostate-1 (STEAP-1) (UniProt Q9UHE8 1-339, limits assumed)
[2] = biological target: T1, six-transmembrane epithelial antigen of …; remark: listed apart in the source
[3] = biological target: T1, six-transmembrane epithelial antigen of …; remark: listed apart in the source
[4] = biological target: T1, six-transmembrane epithelial antigen of …; remark: listed apart in the source
[5] = biological target: T1, six-transmembrane epithelial antigen of …; remark: listed apart in the source
[6] = biological target: T1, six-transmembrane epithelial antigen of …; remark: listed apart in the source

T1 sequence (Q9UHE8 whole entry): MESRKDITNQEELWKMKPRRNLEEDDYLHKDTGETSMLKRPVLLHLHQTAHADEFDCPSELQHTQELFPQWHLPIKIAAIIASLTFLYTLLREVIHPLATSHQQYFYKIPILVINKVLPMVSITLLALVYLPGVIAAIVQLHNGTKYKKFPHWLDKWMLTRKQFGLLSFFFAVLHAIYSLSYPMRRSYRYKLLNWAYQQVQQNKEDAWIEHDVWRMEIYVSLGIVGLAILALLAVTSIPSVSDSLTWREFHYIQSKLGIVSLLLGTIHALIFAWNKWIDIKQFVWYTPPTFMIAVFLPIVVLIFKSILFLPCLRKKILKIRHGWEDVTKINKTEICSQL

Row | Binder | Cell line cytotoxicity EC50 (pM), IM-95 [1] | Cell line cytotoxicity EC50 (pM), LNCaP [1] | Cell line cytotoxicity EC50 (pM), 22RV1 [5] | Cell line cytotoxicity EC50 (pM), IM-95 [5] | Cell line cytotoxicity EC50 (pM), LNCaP [5] | EC50/pM, LNCaP tumor cell killing [6] | further results
1 | TCE-25 (bispecific antibody) light: DIQMTQSPSSLSASVGDRVTITCKSSQSLLYRSNQKNYLAWYQQKPGKAPKLLIYWASTRESGVPSRFSGSGSGTDFTLTISSLQPEDFATYYCQQYYNYPRTFGQGTKVEIKRTVAAPSVFIFPPSDEQLKSGTASVVCLLNNFYPREAKVQWKVDNALQSGNSQESVTEQDSKDSTYSLSSTLTLSKADYEKHKVYACEVTHQGLSSPVTKSFNRGEC heavy: not shown | 49.5 pM | 320 pM |  |  |  |  | Cell line cytotoxicity EC50 (pM), 22RV1 [1]: 1990 pM; Cell line cytotoxicity EC50 (pM), A673 [1]: 116 pM; Cell line cytotoxicity EC50 (pM), C4-2B [1]: 1200 pM; Cell line cytotoxicity EC50 (pM), OE33 [1]: 655 pM; Cell line cytotoxicity EC50 (pM), VCaP [1]: 2280 pM
2 | TCE-3 (bispecific antibody) light: DIVMTQSPDSLAVSLGERATINCKSSQSLLYRSNQKNYLAWYQQKPGQPPKLLIYWASTRESGVPDRFSGSGSGTDFTLTISSLQAEDVAVYYCQQYYNYPRTFGQGTKVEIKRTVAAPSVFIFPPSDEQLKSGTASVVCLLNNFYPREAKVQWKVDNALQSGNSQESVTEQDSKDSTYSLSSTLTLSKADYEKHKVYACEVTHQGLSSPVTKSFNRGEC heavy: not shown |  |  | > 10000 pM | 639 pM | 1340 pM |  | IC50 (pM), LNCaP tumor cell killing in the presence of CD8+ T cells [2]: 1670 pM; IC50 (pM), VCaP tumor cell killing in the presence of CD8+ T cells [3]: > 10000 pM; IC50 (pM), 22Rv1 tumor cell killing in the presence of CD8+ T cells [4]: > 10000 pM; Cell line cytotoxicity EC50 (pM), VCaP [5]: > 10000 pM
3 | TCE-27 (bispecific antibody) light: DIVMTQSPDSLAVSLGERATINCKSSQSLLYRSNQKNYLAWYQQKPGQPPKLLIYWASTRESGVPDRFSGSGSGTDFTLTISSLQAEDVAVYYCQQYYNYPRTFGQGTKVEIKRTVAAPSVFIFPPSDEQLKSGTASVVCLLNNFYPREAKVQWKVDNALQSGNSQESVTEQDSKDSTYSLSSTLTLSKADYEKHKVYACEVTHQGLSSPVTKSFNRGEC heavy: not shown | 82.7 pM | 752 pM |  |  |  |  | 
4 | TCE-53 (bispecific antibody) light: DIQMTQSPSSLSASVGDRVTITCKSSQSLLYRSNQKNYLAWYQQKPGKAPKLLIYWASTRESGVPSRFSGSGSGTDFTLTISSLQPEDFATYYCQQYYNYPRTFGQGTKVEIKRTVAAPSVFIFPPSDEQLKSGTASVVCLLNNFYPREAKVQWKVDNALQSGNSQESVTEQDSKDSTYSLSSTLTLSKADYEKHKVYACEVTHQGLSSPVTKSFNRGEC heavy: not shown |  |  |  |  | 1010 pM | 1010 pM | 
5 | TCE-57 (bispecific antibody) light: DIQMTQSPSSLSASVGDRVTITCKSSQSLLYRSNQKNYLAWYQQKPGKAPKLLIYWASTRESGVPSRFSGSGSGTDFTLTISSLQPEDFATYYCQQYYNYPRTFGQGTKVEIKRTVAAPSVFIFPPSDEQLKSGTASVVCLLNNFYPREAKVQWKVDNALQSGNSQESVTEQDSKDSTYSLSSTLTLSKADYEKHKVYACEVTHQGLSSPVTKSFNRGEC heavy: not shown |  |  | 295 pM |  | 45.2 pM | 45 pM | 
6 | TCE-70 (bispecific antibody) light: DIQMTQSPSSLSASVGDRVTITCKSSQSLLYRSNQKNYLAWYQQKPGKAPKLLIYWASTRESGVPSRFSGSGSGTDFTLTISSLQPEDFATYYCQQYYNYPRTFGQGTKVEIKRTVAAPSVFIFPPSDEQLKSGTASVVCLLNNFYPREAKVQWKVDNALQSGNSQESVTEQDSKDSTYSLSSTLTLSKADYEKHKVYACEVTHQGLSSPVTKSFNRGEC not shown heavy: not shown |  |  | 916 pM | 31.8 pM | 231 pM |  | 
